Laboratory results: the supplement of paper PMC11417369
± gives the standard deviation of the averaged measurements. Some of the results follow.

Tested on: PfAP2-LT AP2 domain (GST-tagged)
Experiment: gcPBM binding intensity (ln(normalized median fluorescence intensity)); higher = stronger DNA binding
Method in brief: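 An Agilent 4 × 180k array of primer-extended double-stranded 36-bp intergenic genomic probes, with negative controls, was incubated for 1 h with GST-tagged P. falciparum DNA-binding domains expressed in E. coli. Alexa488 anti-GST antibody detected bound protein, scanned at 488 nm. Binding intensity is the highest Masliner-normalised natural-log median intensity across replicate spots of either probe orientation.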

| Sequence | gcPBM binding intensity (ln) |
| --- | --- |
| TATACCTTTGCGTGTGCATGCGCTTATATATATTTT [TGCATGCA_site152] | 9.37 ± 0.29 |
| TTTATGTGTATGTTTACACACATAAAAAAATATATG [CACACA_site3039] | 9.08 ± 0.35 |
| ACAATTCCCGTATGATGTACTTTTTTCCACTTTTTC [XGTACX_site1811] | 9.06 ± 0.47 |
| TATTTTTAATATTTTGCATGCAGTATTTTATAAAAT [TGCATGCA_site250] | 8.8 ± 0.34 |
| TACTAACATAAAGACACACACCACATAAAATAAATA [CACACA_site7663] | 9.6 ± 0.33 |
| TATGAACACAGACACACACACAAAAAAAAAAAAAAA [CACACA_site7037] | 9.18 ± 0.56 |
| GGAAGAAAACTTAGGTGTACATATAAAACGATATAA [XGTACX_site3118] | 8.89 ± 0.52 |
| ATAGTATACAGACACACACACACACCGATATATATA [CACACA_site8511] | 10.1 ± 0.13 |
| CTTATTTTGTTATAAGTGCATTTTTTAAAATTTCTT | 8.54 ± 0.37 |
| ATTATCTTATGTTATTTATTTGTCCCACATTTGTTA [TGCATGCA_negctrl_site402] | 8.91 ± 0.46 |
| CATACACCCAGACACACACACATATATATATATATA [CACACA_site634] | 10.3 ± 0.17 |
| TTTTTGTTATTATGTGTGCACATATATATATATATA | 9.94 ± 0.34 |
| AACAAATATCCCAAAAGTACACATATAAAAAAAAAA [XGTACX_site4126] | 8.78 ± 0.42 |
| TATGTTATTATTTGTACACACACATATATATCCTTG [CACACA_site5910] | 9.62 ± 0.49 |
| TTTATTTATATAATTACACACATATATACGCAAATG [CACACA_site2794] | 8.97 ± 0.38 |
| TCATTAATTAAATCTTGTACATATTCATATATATAT [XGTACX_site2241] | 8.82 ± 0.4 |
| TTTTATTCATTAATTTGTACTTATCCTTTTGCTTAA [XGTACX_site1243] | 8.78 ± 0.51 |
| TAAGCCAAGGGATAAATAAAATAACAAAATGAAATC [GTGCAC_negctrl_site601] | 8.81 ± 0.59 |
| AAAGTATAGATGTATACACACACCAAACGTTAAAAA [CACACA_site3081] | 9.36 ± 0.38 |
| TAGTATCAATCTTATACATGCATAAAATAATTATAA [TGCATGCA_site1052] | 8.55 ± 0.38 |
| GTGTTCTTGTTATACACACACATATTTATATTTATA [CACACA_site6615] | 9.3 ± 0.37 |
| ACATTATGCCATAAATGTACACATACATATACACAG [XGTACX_site1330] | 9.04 ± 0.37 |
| TAACTAAGGAATAATACACACAGAAATATATATTTA [CACACA_site344] | 9.03 ± 0.47 |

| Sequence | gcPBM binding intensity (ln) |
| --- | --- |
| GATGATGTTACTTAAGTGCATATAAATTATATTTTA [GTGCAC_site9940] | 8.52 ± 0.45 |
| TAAAAAAATAAAAAAAAAAAATTATAAAATTATATA [GTGCAC_negctrl_site302] | 8.09 ± 0.57 |
| TAAAGTTTTTTTTTAACACACACATAATAAAATAAA [CACACA_site8042] | 8.74 ± 0.32 |
| AAATATATTATAAATTGTACGTTTATATATATTATT [XGTACX_site5110] | 8.69 ± 0.47 |
| GACACATATAAATATTAACACACATAATGAATTATA [CACACA_site8881] | 8.99 ± 0.42 |
| CGTTAGAGGGCTTTATCACACATGAAAAAAAAAAAA [CACACA_site5155] | 8.48 ± 0.56 |
| TTATGTATTCATAACACATGCAAATAGGATCATATA [TGCATGCA_site731] | 8.73 ± 0.38 |
| CACACGCACAGACACACACACACATATAAATATGTA [CACACA_site6300] | 9.89 ± 0.37 |
| ATATGATTTCACAAGACACACACATACAAATTTATA [CACACA_site9296] | 9.3 ± 0.35 |
| TACAACATATTCAAATGTACAAATATAGGAATGAAA [XGTACX_site2730] | 8.89 ± 0.47 |
| AACATAAAATGGATATGTACATAAAAATATATACTC [XGTACX_site7775] | 9.13 ± 0.51 |
| AGCGTATTATACTGACGTACATTTTATGTAACTCCA [XGTACX_site2715] | 8.79 ± 0.3 |
| AAAAAAAAAAAAAAAACACACACAAATTTAATATAT [CACACA_site8492] | 9.12 ± 0.4 |
| TACACCAAAAAAAAACGTACAAAATCCCACCCAGAC [XGTACX_site4622] | 9.81 ± 0.28 |
| AAAATTAAAGTAAGGACACACATATATAATACATAT [CACACA_site823] | 9.2 ± 0.44 |
| TATATATATAACAACACACACAGATCATAAAACTGC [CACACA_site2161] | 9.51 ± 0.23 |
| AAAAAAAAAAAAAACACACACAAATTTAATATATAT [CACACA_site1695] | 9.29 ± 0.54 |
| TATATTTATTTTAACACACACATATATATATTATAT [CACACA_site4729] | 9.12 ± 0.42 |
| TCCCAAGGAGTAGGCACACATAAAATATTATACATA [CACACA_site717] | 8.86 ± 0.64 |
| AAAAATATATATTCAGTGCATATAACAAAAATTATA [GTGCAC_site9794] | 8.71 ± 0.48 |
| CATAATAATAGAAACACACACACATAGACATATATA [CACACA_site1308] | 9.93 ± 0.2 |
| ATTAAATAAAAAAACACACACATATATACATATATA [CACACA_site3445] | 9.29 ± 0.23 |
| CATATATAACCTATAGCACACATATATAATATATAT [CACACA_site8544] | 9.07 ± 0.36 |

| Sequence | gcPBM binding intensity (ln) |
| --- | --- |
| TAAAATATAGAAAATTTTATTAAATATAAAAAAATA [CACACA_negctrl_site1441] | 8.28 ± 0.47 |
| GCATATCTATTTTCACGTACACAAACATGTATATAT [XGTACX_site3722] | 8.97 ± 0.4 |
| ATATTACATATGTGCTGTACGCAATATATTATATCT [XGTACX_site1520] | 9.03 ± 0.38 |
| AAGAACTTTAATAAGTGTACATTTATTGGAAACATG [XGTACX_site2995] | 8.6 ± 0.51 |
| TTATATAAACACCAACGTACGTTCATTTAACATAAC [XGTACX_site5250] | 8.93 ± 0.52 |
| TATATATATATATATTGTACATATGTGGTATAAATG [XGTACX_site6108] | 9.31 ± 0.2 |
| TTTCTCTTCTAAACATGTACAAAAATACATACATAT [XGTACX_site1365] | 8.73 ± 0.56 |
| AAAAATTAAAATATTATAGTTGAAACTTTTATAAAT [TGCATGCA_negctrl_site454] | 8.25 ± 0.47 |
| TATATTTATTCCTGTTGTACTTTATATTATTTTTTT [XGTACX_site1415] | 8.9 ± 0.47 |
| TCCCATTTATTATGGTGTACAATTAATTAAACATAA [XGTACX_site750] | 8.4 ± 0.35 |
| ATATATATATATATATGTACATACATACATAGAACT [XGTACX_site2214] | 9.68 ± 0.42 |
| TATAATATTAATGACTGTACTCATACGTATATTTAT [XGTACX_site5493] | 8.98 ± 0.37 |
| AATTTTGTTTAGCACACACACATACATACATACATA [CACACA_site5707] | 9.69 ± 0.28 |
| TTTAATTTATATTTTGTGCACATCTTATTATATATA [GTGCAC_site9630] | 9.04 ± 0.49 |
| CCCATTTTGACAAAAAGTACAAGTTCAGGTTTTATA [XGTACX_site1532] | 8.51 ± 0.42 |
| TATATTATTTTATATTGTACATACCAAATATTATAT [XGTACX_site1693] | 8.68 ± 0.41 |
| CATGTGATAATGATTAGTACATAAACAAAAATATAT [XGTACX_site5866] | 8.93 ± 0.53 |
| AGAAAAATAAACAAATGTACAAATTATTACTATATA [XGTACX_site1087] | 8.81 ± 0.45 |
| ACATATTAATTATTATGACATACATATCAGTTATTA [TGCATGCA_negctrl_site126] | 8.7 ± 0.4 |
| TATTCCTATAAAAAAACACACACATATAAATATATA [CACACA_site8727] | 9.12 ± 0.3 |
| AAATATATTTCACGCACACACACCCCAAATAAATTT [CACACA_site3820] | 9.81 ± 0.11 |
| ATATTTCAAAATGAAAGTACATATAAAAATTATACA [XGTACX_site3787] | 8.6 ± 0.46 |
| AAATAGATAAGTAGGACACACATATATATATATTAA [CACACA_site1862] | 9.13 ± 0.49 |

| Sequence | gcPBM binding intensity (ln) |
| --- | --- |
| AAGTATTTTTTTACATGTACATATATATATATATAT [XGTACX_site5065] | 9.12 ± 0.46 |
| TATAAAAAATTCTTCCTTATTTTATGATATATATAT [TGCATGCA_negctrl_site57] | 8.38 ± 0.42 |
| ATTTGCAGTATTTCGGAACACACAAACATAAATATG [CACACA_site8726] | 8.82 ± 0.45 |
| TTTAATTATTAGTGTGCACACAACTATGAGTTTTTA [CACACA_site8997] | 9.07 ± 0.33 |
| AATTACATTCAATTCTGTACTAATAGTAATTCAAAA [XGTACX_site7419] | 8.47 ± 0.39 |
| CAAAAACATACCTACACACACAATATGTATTTATAA [CACACA_site5862] | 9.37 ± 0.23 |
| AAATGAATATTCATAGTGCAATATATAAATGAAAAT | 9.03 ± 0.49 |
| CATTTTTTTTTATAAATACACACGTACGGGTGCATA [CACACA_site1569] | 8.84 ± 0.4 |
| GAACATTTACGCCCCACACACCTACCAACAAAAAAA [CACACA_site7746] | 9.52 ± 0.47 |
| TTCTTAAAAAAAAATAAAATAAAAAAAAAAATAAAA [CACACA_negctrl_site99] | 8.14 ± 0.48 |
| TTCTGGCAAAATAACACACACATATATTTTATATAC [CACACA_site3242] | 9.43 ± 0.33 |
| ATAATTACATAGATTGGTACACATTTTTGATTGTAT [XGTACX_site3802] | 9.03 ± 0.38 |
| TTAAAAATGTGTGTGCGTACATAATATTTCGAAAAA [XGTACX_site8197] | 9.26 ± 0.4 |
| GTACAAATGATTAATCCTTTACTTATATATATATAT [XGTACX_negctrl_site138] | 8.96 ± 0.4 |
| TCATTTTATTATTCTACACACTTATCTATAATTATA [CACACA_site34] | 8.94 ± 0.42 |
| TTTTTCATATGACACACACACAAAAATAATGTGGAA [CACACA_site7692] | 9.26 ± 0.43 |
| AAATGAACACGAAAGGAAAAAAAAATATATATATAT [CACACA_negctrl_site267] | 9.29 ± 0.42 |
| AACACTTCATACACGTGTACAAATATAATATAGACA [XGTACX_site5671] | 9.2 ± 0.59 |
| AAAATATTCACGTGTACATATATATATATATATTAT [TGCATGCA_negctrl_site192] | 9.16 ± 0.31 |
| GGAAATAATATTATTACACACCAAAATGTATAAAAA [CACACA_site4036] | 8.95 ± 0.45 |
